Paper PMC12136788
This is one part of the list.

T1: UNK ZnF1-3 (human, UniProt Q9C0B0 31-174)
T1 sequence: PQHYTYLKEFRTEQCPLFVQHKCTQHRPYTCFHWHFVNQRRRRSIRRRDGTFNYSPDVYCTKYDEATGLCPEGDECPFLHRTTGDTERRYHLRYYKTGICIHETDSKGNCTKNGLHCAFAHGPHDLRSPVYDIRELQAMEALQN

B1: chr1:127303955:127303956:-_ENSMUSG00000026341_ENSMUST00000027579|perfect_dup|FALSE|FALSE (ssRNA)
RNA: GGGAGUUCUACAGUCCGACGAUCUAUUACUGUACCCGUCAGCGUCCGCUCUCCUACUUGUCUUGAGGUCCAGGAUGCAGCUAAGGCAAGAACAGCCUGCACAGCAAUGUACAAGCCUGGAACAUUGAAGGAUUCAAACAUUAUCAACAGAGGAUUGAGCAUCA
B2: chr7:7679991:7679992:-_ENSG00000106399_ENST00000396682|hu_hu|hu_hu_hu_mus_False|8_48 (ssRNA)
RNA: GGGAGUUCUACAGUCCGACGAUCUGGGAUGAAUCUUUUCCAGCUUCCCCACGAAGCACACGGGCCGGUCGAUAUACUGUGGUAACAUGCCGGCGUUGACGCGCGCUUUGGGGAGCUGCAUUAUGUCCACCAUGAUUCUGCCGCCAACAGAGGAUUGAGCAUCA
B3: chr13:107726893:107726894:-_ENSMUSG00000042590_ENSMUST00000080856|mus_mus|FALSE|FALSE (ssRNA)
RNA: GGGAGUUCUACAGUCCGACGAUCCCUUUCCACUUGUCCACACGAAGCGGCGUUGGUUGCUUCCUCGUCCCCCACGCUCCUAGUCCACACGCUGCCGCCUACUGAUGCCGAAAACGGCUUCUAGGAACGCGCCAUGUUCCGCGUCAACAGAGGAUUGAGCAUCA
B4: chr2:78710632:78710633:+_ENSMUSG00000027011_ENSMUST00000028398|mus_mus|motif|central (ssRNA)
RNA: GGGAGUUCUACAGUCCGACGAUCUCGGGCUCUGGAGCGGCAGGGUCUCGCUGAUCUGCAUCUGAACUGCCACUGCUGGUGCGGGGGCUCUCAUCAUCCGACCUUUGCCUGUCACUGGACAUCUUGGUGAACUUAUCUCUGGGACAACAGAGGAUUGAGCAUCA
B5: chr2:216981417:216981418:+_ENSG00000079246_ENST00000392132|hu_hu|hu_hu_hu_mus_True|48_108 (ssRNA)
RNA: GGGAGUUCUACAGUCCGACGAUCCUGAUACUGAUCCUUGCCAGCAAGGGCAUUAUCAGUGCCAUCUGUGCCAUAGAGGACUAACGCAAUCUCAUCCUUGCUCUCCGAAAAUACCUGUCGUUGGACAAACAUAGUCAUCACUUUCAACAGAGGAUUGAGCAUCA
B6: chr4:148551591:148551592:-_ENSMUSG00000063077_ENSMUST00000060537|mus_hu|mus_mus_mus_hu_False|18_68 (ssRNA)
RNA: GGGAGUUCUACAGUCCGACGAUCACCUGACAAAAUUAAAUAUCCCUGUAAAUUAGACAAUAAGCAGCAGGUAACAAAGUCUUUGCUUUGGAAUAUGUGCCAGGAAAAGUCAUCUUGUAGACCCCAAUCAAGAGACAGUUCACACAACAGAGGAUUGAGCAUCA
B7: 95621333_95621453_120_5pUTR_ENSMUSG00000064210_ENSMUST00000071874|mouse|control|control (ssRNA)
RNA: GGGAGUUCUACAGUCCGACGAUCCUCCAUGUUCAGCAGGACCUUCCUAGUCAUCAUCUGCAUGUCUCCCGGAGACCGUCACUCGGCUGCUCUCGGCUCCGCUCGGCUCCGCUCGGCUCGGGCCGCAAGCUCCGCUCUGCCCUCCAACAGAGGAUUGAGCAUCA
B8: chr2:232320318:232320319:-_ENSG00000115053_ENST00000322723|hu_hu|hu_hu_hu_mus_True|18_48 (ssRNA)
RNA: GGGAGUUCUACAGUCCGACGAUCACUAUUAAAGUCUACAAAACCAAACCCUUUGGAAGAACCAGUUUCCCGAUCAGUGACUAUUCUUGCCCGAACGGAGCCCUCAAAUGAUUCUUUUAAUGUCUCUUCAGUGGUAUCCUCAGACAACAGAGGAUUGAGCAUCA
B9: 28770882_28772721_2572_CDS_ENSG00000108582_ENST00000225719|human|control|control (ssRNA)
RNA: GGGAGUUCUACAGUCCGACGAUCAACUGGAUUAUACCCUCGAGCAGAUGCUGUGAUUUUAUAAGUUCCUGGAACCAAGAGACGCCAGUAAUCUCCAGUUUUGUAAGUAGUCACUGGGUGAUUAAUCUCAGCAACACUAAUGGUCAACAGAGGAUUGAGCAUCA
B10: chr17:13115065:13115066:+_ENSMUSG00000068039_ENSMUST00000151287|mus_mus|motif|central (ssRNA)
RNA: GGGAGUUCUACAGUCCGACGAUCGAUACUUGCUCCAGAAGCUUUUGCAACAUGCUUCAGGUCUCGUUUUAAAACUCUCCGGACAGCCAUGGCACCAGCUUCCACAAAAUACUUGAGAUACAUAUCAUCAAUGCCACCAGUGGUCAACAGAGGAUUGAGCAUCA
B11: chr1:88248876:88248877:-_ENSMUSG00000026234_ENSMUST00000027438|perfect_dup|FALSE|FALSE (ssRNA)
RNA: GGGAGUUCUACAGUCCGACGAUCUUCCCUUUUAUUACAGGAAUUUAAAGCUUCUUUAGCGUCUUCGAAUGAAGCAAACUCUAUAAAUGCAUACCCUUUAGAUUUGCCAUUUUGGUUCUGGGGUACUUUGAUAAAAGUUGCUUUCAACAGAGGAUUGAGCAUCA
B12: chr1:89340274:89340275:+_ENSMUSG00000048000_ENSMUST00000174671|mus_mus|motif|central (ssRNA)
RNA: GGGAGUUCUACAGUCCGACGAUCUUGGCACGGCGUUCAAGGAACUGCUUGGCAAACUCCUUGGCCUCGGAAGUAUCUCCGGAAUAGGCCCUGGUAUAGUCAUGGACUUCAUAAGGAGACUCCACUUCUUUCAAGAAAGAAACACAACAGAGGAUUGAGCAUCA
B13: chr2:47387770:47387771:-_ENSG00000143933_ENST00000272298|hu_mus|hu_hu_hu_mus_True|38_38 (ssRNA)
RNA: GGGAGUUCUACAGUCCGACGAUCAAGGUUUAAGGACAAUGACAGUAAGAUAAGGGAAGAAAACAUGGAGGAAUGAAGUCCUAAUUACUAUACAUGCAUAUUUUUUUACAGUAGGGGGGGGGAACCUUUUACAGAUAAGUUACACAACAGAGGAUUGAGCAUCA
B14: chr1:39494447:39494448:+_ENSG00000168653_ENST00000372967|hu_mus|hu_hu_hu_mus_False|1_88 (ssRNA)
RNA: GGGAGUUCUACAGUCCGACGAUCGCACCGAGCGGCGUUCUUAUAGGGCUGUUCACCGCUUAGGAACAUAAAGUGCCGGUCCAGGCUGAUGCCCAGCUUUUUCUGUAUGUCAAGGAAAGGCAUGGCUCUGCAGUGCCCCCUUGACAACAGAGGAUUGAGCAUCA
B15: chr4:17845017:17845018:+_ENSG00000109805_ENST00000514176|hu_mus|hu_hu_hu_mus_False|1_28 (ssRNA)
RNA: GGGAGUUCUACAGUCCGACGAUCGCUCUCUUAACUUGUAUCUUCAUUAAGGAACUCUGCAAGGUUAAGUUUACUUUUCUGUAGCGCAGCUGUUUUGGCUCGUCUGGUAGUCUCAUCCUUCAUUUCUGAUGGUGGUUUGGAACUCAACAGAGGAUUGAGCAUCA
B16: chr15:57523399:57523400:+_ENSG00000140262_ENST00000343827|hu_hu|FALSE|FALSE (ssRNA)
RNA: GGGAGUUCUACAGUCCGACGAUCAUCUUGCAUAAAGAAAGUGCUAGCGAACAUACUGGUUGGUGGCUUAGGAGAUGGAUAACUAGGAGAUUCACGGUUGAAAUCAUCUGAAUUUGGGGAUGGUGCAUAUACCGUUUUCCCAUUCAACAGAGGAUUGAGCAUCA
B17: chr8:125590379:125590380:+_ENSMUSG00000000738_ENSMUST00000108868|mus_mus|motif|central (ssRNA)
RNA: GGGAGUUCUACAGUCCGACGAUCUCUGACUGCAUUUGGAACUAUAUGCUGUUUCAGUAACAAUCCGCUAAUACCUUCAAAGCGGGGGGUCAGUAUUCGCAAUAGCAAACUCUGAGGCGCGUGGCCUCCAGCCGCAGCCGGGCCCAACAGAGGAUUGAGCAUCA
B18: chr13:104848895:104848896:-_ENSMUSG00000021710_ENSMUST00000109315|mus_hu|FALSE|FALSE (ssRNA)
RNA: GGGAGUUCUACAGUCCGACGAUCAGGGAAAUAGUGUGGAUAUUUUAAGGUAAUUUUAUACUUGUCAUCAUCUGUCUUUUCUAAACUGUCAAUGAAAUCAUCAGGAAGAGCACCAAGUUCAGCCUUGGAAAAUACAAGGAAGGUCAACAGAGGAUUGAGCAUCA
B19: chr8:28149726:28149727:+_ENSMUSG00000031483_ENSMUST00000033873|mus_hu|motif|central (ssRNA)
RNA: GGGAGUUCUACAGUCCGACGAUCCUCCAGCUAUCAACCCACGGCAAUCAAUCCAGCAGUAUCAUUUAUAGAAUGAUUACGGAAACAAGAAUCAUUUCUCAGUUACAAAUGGGGUCAUUAAGCCCUUGGGGCUCUUUGAAAGUACAACAGAGGAUUGAGCAUCA
B20: chr9:91949571:91949572:+_ENSG00000187742_ENST00000375807|hu_hu|FALSE|FALSE (ssRNA)
RNA: GGGAGUUCUACAGUCCGACGAUCAAUGUGUUUUUCUUUGUUGUAGGAAGGAUCCGAAGAUAAAGCUUCAGAAGAUGGUAUACUAACAUUUUUAGGAUCUGCUGAUGAAGCAAUGGUCUUUAAGUUUAUCAUAGAAGUAACAUUCAACAGAGGAUUGAGCAUCA
B21: chr17:45747064:45747065:+_ENSG00000108424_ENST00000290158|hu_hu|hu_hu_hu_mus_True|18_38 (ssRNA)
RNA: GGGAGUUCUACAGUCCGACGAUCGCCCACAGUCCACGCUGUUGUGUCUCGAACAACUACACUGGGGUCUUUCAUUAGUUCUAUUAGGGUGGGCAUAGCCUGUAUAACUAAUGGUUUGAGCUGACUGGGCUCUGGUCCUUCCAACAACAGAGGAUUGAGCAUCA
B22: chr2:128501614:128501615:-_ENSMUSG00000014355_ENSMUST00000014499|mus_hu|motif|central (ssRNA)
RNA: GGGAGUUCUACAGUCCGACGAUCAGUCACAGGGGAAUCUCCUUUGGAGAGGCUUCUGAGAUGUGCUGUGAGGGAGCUGCGGGUGGCCACAUUCUGUGGGGUUCCCCCCUGUUCAGAGAACUUUAAAACAACAUUCUCUUCCUCCAACAGAGGAUUGAGCAUCA

The binders below were run against T1, UNK ZnF1-3 (assay: nsRBNS (natural sequence RNA bind-n-seq); RBNS binding buffer (assumed for nsRBNS): 25 mM Tris pH 7.5, 150 mM KCl, 3 mM MgCl2, 0.01% Triton X-100, 500 ug/ml BSA, 20 U/ml SUPERase-In, 4 C; UNK is unkempt and MSI1 is Musashi-1; names of the RNAs are library labels; protein concentration not given here; high values mean tight binding).
B1 gave a binding signal of 0.988 enrichment R. Binder B2 has a binding signal of 0.418 enrichment R. Binder B3 has a binding signal of 0.673 enrichment R. For B4, the binding signal was 0.899 enrichment R. B5 showed a binding signal of 0.662 enrichment R. Binder B6 has a binding signal of 1.46 enrichment R. B7 gave a binding signal of 0.9 enrichment R. Work on B8 yielded a binding signal of 0.879 enrichment R. With B9 the binding signal was 0.787 enrichment R. In the case of B10, the binding signal is reported as 1.25 enrichment R. For B11, the binding signal was 0.792 enrichment R. With B12 the binding signal was 0.731 enrichment R. For B13, the binding signal was 1.95 enrichment R. In the case of B14, the binding signal is reported as 0.789 enrichment R. Work on B15 yielded a binding signal of 0.386 enrichment R. Binder B16 has a binding signal of 1.23 enrichment R. In the case of B17, the binding signal is reported as 0.737 enrichment R. B18 was tested, and the binding signal was 1.66 enrichment R. In the case of B19, the binding signal is reported as 1.54 enrichment R. B20 gave a binding signal of 0.841 enrichment R. Work on B21 yielded a binding signal of 0.59 enrichment R. For B22, the binding signal was 1.2 enrichment R.
